Test results published in patent US20250345451A1 (BIOTHEUS, published 2025).

What follows are binders tested against T1, human PD-L1 protein (human, UniProt Q9NZQ7 in part, limits assumed) (assay: ForteBio BLI as in Example 5, human PD-L1).
T1 construct: also called PD-L1 antigen

Kd [nM]	koff [s⁻¹]	kon [M⁻¹ s⁻¹]	Binder
6	0.00139	232000	C-Ye-18-6 (Fc fusion) EVQLQESGGGLVQPGGSLRLSCAASGFTFSSYWMYWLRQAPGKGLEWVSSISGSSSSTYYRDSVKGRFTISRDNAKNTLYLQMNSLKSEDTAVYYCAKDPGGYAKGQGTQVTVSS[omitted - human IgG1 Fc with changes]

The binders below were run against T1, human PD-L1 protein (assay: not given).
T1 sequence (Q9NZQ7 19-238 limits assumed): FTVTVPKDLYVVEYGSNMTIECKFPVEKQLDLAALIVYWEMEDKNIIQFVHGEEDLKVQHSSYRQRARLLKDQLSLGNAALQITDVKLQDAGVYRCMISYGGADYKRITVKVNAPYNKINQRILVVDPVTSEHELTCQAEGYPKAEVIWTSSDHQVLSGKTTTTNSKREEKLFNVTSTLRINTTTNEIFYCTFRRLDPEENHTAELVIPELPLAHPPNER

Kd [nM]	koff [s⁻¹]	kon [M⁻¹ s⁻¹]	Binder
39.4	0.0021	53200	C-Ye-30 (Fc fusion) QVQLQESGGGLVQAGGSLRLSCAASGSTFSRYAVGWFRQAPGLGRDFVAAITWSGGYTYYADSVKGRFTISRDNAKNTVYLQMNSLKPEDTAVYYCAVDTRNVIGPRAGDYWGQGTQVTVSS[omitted - human IgG1 Fc with changes]
24.4	0.00191	78100	C-Ye-34 (Fc fusion) QVQLQESGGGLVQAGGSLRLSCAASGRTFSRFAMGWFRQAPGKEREFVAAISWSGGMIYYTDSVKGRFTISRDNAKNMLYLQMNSLKPEDTAVYYCAVDTRNVIGPRAGDYWGQGTQVTVSS[omitted - human IgG1 Fc with changes]
44.3	0.00258	58300	C-Ye-32 (Fc fusion) QVQLQESGGGLVQAGGSLRLSCAASGRTFSRYAVGWFRQAPGLGRDFVAAITWSGGYTYYADSVKGRFTISRDNAKNTIYLQMNSLNVEDTGVYYCAVDTRNVIGPRAGDYWGQGTQVTVSS[omitted - human IgG1 Fc with changes]
503	0.0107	21200	C-Ye-39 (Fc fusion) QVQLQESGGGLVQAGGSLRLSCTASGRAFSVYPMAWFRQAPGKEREFIARLTYTSNTFYADSVKGRFTISRDNAKNTVYLQMNSLKPEDTAVYYCAVENRSSSWSLQSPARYDDWGQGTQVTVSS[omitted - human IgG1 Fc with changes]
34.1	0.00321	94100	C-Ye-26 (Fc fusion) QVQLQESGGGLVQAGGSLRLSCVASGRTVSNYAMGWFRQAPGKEREFVARITGSGSSTFYADSVKGRFTISRNNLSNTVYLQMNSLKREDTAVYYCAADRWRSMVTRSDPRDYENWGQGTQVTVSS[omitted - human IgG1 Fc with changes]
19.5	0.00151	77100	C-Ye-24 (Fc fusion) QVQLQESGGGVVQAGDSLRLSCVASGRTVSNYAMGWFRQAPGKEREFVARITGSGRTTYYADSVKGRFTISRNNLSNTVYLQMNSLKREDTAVYYCAADRWRSMVTRSDPREYENWGQGTQVTVSS[omitted - human IgG1 Fc with changes]
134	0.00581	43500	C-Ye-06 (Fc fusion) QVQLQESGGGLVQPGGSLRLSCAASGRTFDNYAMGAMGWFRQAPGKEREFVATITWSSGSSFYANSVKGRFTISRDNAKNTVYLQMNSLKPDDTAVYYCASRKLGGVVTVVTSYDFWGQGTQVTVSS[omitted - human IgG1 Fc with changes]

The next lines start with the binder.

Binder	Kd [nM]	koff [s⁻¹]	kon [M⁻¹ s⁻¹]
C-Ye-27 (Fc fusion) QVQLQESGGGLVQAGGSLRLSCAASGRTFSRYAVGWFRQAPGLGRDFVAAITWSGGYTYYADSVKGRFTISRDNAKNTVYLQMNSLKPEDTAVYYCAVDTRNVIGPRAGDYWGQGTQVTVSS[omitted - human IgG1 Fc with changes]	57.9	0.00315	54500
C-Ye-42 (Fc fusion) QVQLQESGGGLVQAGGSLRLSCAASGRTGSRYAVGWFRQAPGLGRDFVAAITWSGGYTYYADSVKGRFTISRDNAKNTMYLQMNSLKPEDTAVYYCAVDTRNVIGPRAGDYWGQGTQVTVSS[omitted - human IgG1 Fc with changes]	38.9	0.00222	57000
C-Ye-17 (Fc fusion) QVQLQESGGGLVQAGGSLRLSCVASGRTVSNYAMGWFRQAPGKEREFVARITGSGSSTFYADSVKGLFTISRNNLSNTVYLQMNSLKREDTAVYYCAADRWRSMVTRSDPREYENWGQGTQVTVSS[omitted - human IgG1 Fc with changes]	396	0.0102	25800
C-Ye-20 (Fc fusion) QVQLQESGGGLVQAGGSLRLSCVASGRTVSNYAMGWFRQAPGKEREFVARITGSGSSTFYADSVKGRFTISRDNAKNAVYLQMNSLKPEDTAVYYCAADRWRSMVTRSYPREYENWGQGTQVTVSS[omitted - human IgG1 Fc with changes]	48.6	0.0044	90600
C-Ye-02 (Fc fusion) QVQLQESGGGLVQAGGSLRLSCAASGRTFNNSAMGAMGWFRQAPGKEREFVATITWSSGSSFYANSVKGRFTISRDNAKNTVYLQMNSLKPEDTAVYYCASRKLGGVVTVVTSYDFWGQGTQVTVSS[omitted - human IgG1 Fc with changes]	79.8	0.00375	46900
